From PMC6919601, “Identification of Plasmodium dipeptidyl aminopeptidase allosteric inhibitors by high throughput screening” (PLoS ONE, 2019)
The whole screen tested about 110,000 compounds, of which about 230 (0.21%) showed an effect of 50% or more. This is one part of the list.

target: DPAP1 (Plasmodium falciparum, UniProt Q8IIJ9); experiment: primary screen, percent inhibition; read by cleavage of a fluorogenic dipeptide substrate; higher = more effect of the substance; set-up: species or system P. falciparum D10 trophozoite lysates; single well
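Note: 30 min substrate incubation versus DMSO and 10 µM JCP410 controls.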

Sequence of DPAP1 (Q8IIJ9 whole entry, looked up): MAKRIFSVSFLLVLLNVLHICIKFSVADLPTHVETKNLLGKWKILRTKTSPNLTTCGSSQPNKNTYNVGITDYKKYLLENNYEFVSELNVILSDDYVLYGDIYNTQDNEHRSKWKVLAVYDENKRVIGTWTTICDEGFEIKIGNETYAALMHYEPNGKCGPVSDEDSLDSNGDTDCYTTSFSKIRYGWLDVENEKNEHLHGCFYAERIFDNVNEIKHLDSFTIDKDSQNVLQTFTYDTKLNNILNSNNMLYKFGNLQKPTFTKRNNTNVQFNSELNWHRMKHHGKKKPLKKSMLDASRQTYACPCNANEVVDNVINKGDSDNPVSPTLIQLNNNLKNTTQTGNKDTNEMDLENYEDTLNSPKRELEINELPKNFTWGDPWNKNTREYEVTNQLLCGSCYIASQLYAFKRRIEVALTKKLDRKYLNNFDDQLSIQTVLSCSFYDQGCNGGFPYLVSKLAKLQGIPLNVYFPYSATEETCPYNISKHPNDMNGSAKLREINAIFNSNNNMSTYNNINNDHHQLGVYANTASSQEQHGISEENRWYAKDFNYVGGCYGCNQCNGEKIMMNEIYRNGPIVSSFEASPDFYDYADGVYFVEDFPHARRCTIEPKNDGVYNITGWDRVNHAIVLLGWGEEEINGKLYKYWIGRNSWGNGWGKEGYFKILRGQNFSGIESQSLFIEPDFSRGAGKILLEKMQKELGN

Structure (SMILES)	% Inhibition @ 10 uM
COc1cc(OC)cc(C(=O)Nc2nc(-c3nnn(-c4cc(C)cc(C)c4)c3C)ns2)c1	-3.76%
COc1ccc(C(=O)Nc2cccc(C(F)(F)F)c2)cc1OC	-3.65%
O=C(O)CCCC(=O)Nc1nc(-c2ccc(Cl)cc2)cs1	0.687%
CCC(C(=O)NCc1ccccc1C)n1ncn2c(cc3occc32)c1=O (stereo not drawn)	-3.79%
CC(C)(C)c1ccc(C(=O)NCCSc2c[nH]c3ccccc23)cc1	-0.321%
COc1cc(OC)cc(C(=O)N2CCN(Cc3ccc(C(F)(F)F)cc3)CC2)c1	-4.26%
CCN1C(=O)c2ccc(C(=O)Nc3ccc(Br)cc3C(=O)O)cc2C1=O	-17.9%
COc1ccccc1Cn1cccc1C=O	7.47%
Cc1cccc(Oc2nc3c(C)cccn3c(=O)c2/C=C(\C#N)C(=O)NCc2ccco2)c1C	2%
CCOc1ccc(S(=O)(=O)Nc2sc3c(c2C(N)=O)CCCCCC3)cc1	9.28%
CN(C)CCN(C)Cc1ccccc1C(F)(F)F	1.9%
Cc1ccccc1NC(=O)N1CCOCC1	-0.0804%
O=C(CSc1ncn(-c2ccccc2)n1)Nc1nccs1	1.96%
OC(CNc1ccccc1)Cn1c2ccccc2c2ccccc21 (stereo not drawn)	0.962%
CCn1c2c(c(=O)[nH]c1=O)C(c1ccc(C(C)(C)C)cc1)C1=C(O)c3ccccc3C1=N2 (stereo not drawn)	-6.55%
OCC1OC(n2nnc3ccccc32)C(O)C(O)C1O (stereo not drawn)	3.35%
CC(=O)C(C#N)NC(=O)C(CC(C)C)NC(=O)c1cccc(-c2ccccc2)c1 (stereo not drawn)	-1.41%
COc1ccc2nc(-c3ccccc3)nc(NCCN3CCCC3)c2c1	33.9%
Cc1ccc(C)n1-c1nnc(N2CCC(C(=O)NCc3ccc4c(c3)OCO4)CC2)s1	4.33%
O=C(O)c1cccc(-c2ccc(CO)o2)c1	0.415%
Cc1nc2nc(C)c(CCC(=O)N3CCC4(CC3)OCCO4)c(C)n2n1	4.54%
Cc1nc2c(=O)oc3ccccc3c2n1C	4.35%
COc1ccc(NC(=O)c2cnn3c(C(F)(F)F)cc(-c4cccc(OC)c4)nc23)cc1	-5.44%
Cc1cc(C)c2c(N)c(C(=O)Nc3cccc4ccccc34)sc2n1	9.77%
CCCc1cc(O)n2nc(-c3ccco3)nc2n1	-0.671%
O=C(O)c1ccc(Nc2nc(-c3ccc(Cl)cc3)cs2)cc1	-3.14%

Structure (SMILES)	% Inhibition @ 10 uM
CCN(CC)C(=O)C1CCCN(C/C=C/c2ccccc2)C1 (stereo not drawn)	0.273%
O=C(NCC(O)c1ccccc1)c1ccc(Br)cc1 (stereo not drawn)	-5.47%
COc1cc(C2C3=C(O)CC(C)(C)CC3=NC3=C2C(=O)CC(C)(C)C3)c(Br)cc1O (stereo not drawn)	0.851%
CCOc1ccc2nc(NC3=NCN(CCN4CCOCC4)CN3)nc(C)c2c1	-1.69%
CCCSc1nnc(NC(=O)c2sc3nc(-c4cccs4)ccc3c2N)s1	1.31%
Cc1c2cnn(CC(=O)NC(C)CCc3ccccc3)c(=O)c2c(C)n1Cc1ccc(Cl)cc1 (stereo not drawn)	-0.659%
CC(CCN(C)C1CCN(C)CC1)c1ccccc1 (stereo not drawn)	-2.95%
CC(CNc1nnc2c3ccccc3n(C)c2n1)c1ccccc1 (stereo not drawn)	-4.69%
Cc1cc(C)nc(SCC(=O)Nc2ccccc2Br)n1	0.687%
CN1CCC(N(C)C/C(Cl)=C/c2ccccc2)CC1	1.38%
CN1CCN(CC(=O)Nc2c(C(=O)c3ccccc3)oc3ccccc23)CC1	-11.2%
CCC(=O)NS(=O)(=O)c1ccc(NC(=O)c2ccccc2)cc1	1.15%
O=C(N/C(=C\c1ccccc1)C(=O)N1CCN(c2ccccn2)CC1)c1ccccc1	-4.65%
CC1CC(C)(C)NC(=S)N1CCC(=O)N1CCCCCC1 (stereo not drawn)	-2.4%
O=C(CN(CCc1ccccc1)S(=O)(=O)c1cc(Cl)ccc1Cl)N1CCCCC1	-5.34%
Cc1cc(NC(=O)c2sc3nc(-c4ccncc4)ccc3c2N)ccc1Br	-2.8%
CC(NC(=O)c1ccc2c(c1)OCO2)C12CC3CC(CC(C3)C1)C2 (stereo not drawn)	-1.51%
CCc1ccccc1NC(=O)[C@@H]1C[C@@H]1c1ccccc1	1.48%
CC1(C)CC(=O)C2=C(C1)OC(N)=C(C#N)C2c1ccc(C(F)(F)F)cc1 (stereo not drawn)	-0.99%
CN(C)/C=C1/C(=O)N(c2nc3ccccc3s2)N=C1C(F)(F)F	1.26%
Cc1nc2cccnc2n1-c1ccc(C(=O)N2CCCCCC2)cc1	-1.48%
CCNC(=O)CCSc1cccc2cccnc12	-2.19%
CCOc1ccc(-c2cn3c(n2)sc2cc(C(=O)N4CCN(C)CC4)ccc23)cc1	13.8%
Fc1ccccc1CSc1ncn(-c2ccccc2)n1	5.39%
CSc1ccc(C2C3=C(O)CCCC3=Nc3nc4ccccc4n32)cc1 (stereo not drawn)	-1.62%
CC(=O)c1nn(-c2ccc(Cl)cc2)cc1C(=O)c1ccccc1	0.431%

Structure (SMILES)	% Inhibition @ 10 uM
OCCN1CCN(CCCN2Cc3ccccc3CCc3ccccc32)CC1	-1.11%
N#CC1=C(N)Oc2[nH]nc(C(F)(F)F)c2C1c1ccc(F)cc1 (stereo not drawn)	3.99%
COc1ccc(CCNC(=O)CCN2C(=O)C3CC=CCC3C2=O)cc1OC (stereo not drawn)	-0.631%
COc1ccc(S(=O)(=O)N2CCCC2)cc1	2.94%
COc1ccc(Br)cc1/C=C1\N=C(C2CCCCC2)OC1=O	5.01%
CCOC(=O)c1cnc(SCC(=O)O)nc1N	-1.91%
O=C(Nc1sc2c(c1CNC1CCCCC1)CCCC2)c1ccccc1	-5.28%
Cc1cccc(OCC(O)CN2CCCC2)c1 (stereo not drawn)	2.38%
CC1CCc2c(C(=O)O)csc2C1 (stereo not drawn)	-3.53%
COc1ccc2nc(N(CCN(C)C)C(=O)C3CCCCC3)sc2c1	-8.25%
Cc1nn(-c2ccccc2)c2c1C1(C(=O)N(Cc3ccccc3)c3ccccc31)C(C#N)=C(N)O2 (stereo not drawn)	-7.3%
O=C(NCc1ccco1)c1ccc(NS(=O)(=O)c2cccc(C(F)(F)F)c2)cc1	0.214%
CS(=O)(=O)N(CC(=O)NCc1ccc(Cl)cc1)c1cccc(C(F)(F)F)c1	-9.25%
COCCCNC(=O)Cn1c(=O)c2cccn2c2cccnc21	3.38%
CCOc1cc(-c2cc(-c3ccc(F)cc3)nc(N)c2C#N)ccc1O	-9.4%
COCCCNC(=O)c1cc(-c2cccs2)nc2ccccc12	-2.49%
COCC(=O)N(C)C1(c2nnnn2-c2ccccc2)CCCCC1	1.03%
Cc1ccc(CNC(=O)C(C)n2c3ccccc3c3cnn(C)c(=O)c32)cc1 (stereo not drawn)	-5.63%
Cc1nn(CCC(=O)NCc2ccc(OC(C)C)cc2)c(=O)c2nn(-c3ccccc3)c(C)c12	-5.54%
C=CCOc1c(Br)cc(/C=C2/NC(=O)N(Cc3ccccc3)C2=O)cc1OC	4.81%
CN(Cc1ccco1)C(=O)c1cc(-c2ccccc2)[nH]n1	-2.21%
O=C1/C(=C\c2cccs2)Sc2ccc3ccccc3c21	-0.053%
O=C(CSc1nnnn1-c1ccccc1)c1ccccc1	-0.807%
CCOc1cc(CO)ccc1OCc1ccc(Cl)c(Cl)c1	2.78%
CCC(C)Nc1nc(NC(C)(C)C)nc(N2CCOCC2)n1 (stereo not drawn)	5.92%
CCC1CCc2c(sc(NC(=O)c3ccc(Br)o3)c2C(=O)OC)C1 (stereo not drawn)	1.43%

Structure (SMILES)	% Inhibition @ 10 uM
O=C(NCc1cccs1)c1ccc(CNS(=O)(=O)c2ccc(Br)cc2)cc1	-5.22%
CN(C)CCNC(=O)COCc1cc(-c2ccc(F)cc2)on1	-2.69%
Cn1c(NC(=O)Cc2ccc(F)cc2)nc2ccccc21	-2.47%
CC1CCCCN1C(=O)c1cc(S(=O)(=O)N2CCCCC2)c[nH]1 (stereo not drawn)	-1.69%
COc1ccc(OC)c(-c2nc(O)c3c(n2)Oc2ccccc2C3)c1	8.44%
CCCN(CCC)CCCNC(=O)c1oc(=O)c2ccccc2c1-c1ccccc1	-1.54%
COc1ccc(NC(=O)CN(C2CCCCC2)S(=O)(=O)c2ccc(C)cc2)cc1	-2.82%
COc1ccc(NC(=O)CN(c2ccc(OC)c(Cl)c2)S(C)(=O)=O)cc1Cl	-5.13%
O=C(CSc1nc2ccccc2s1)NCc1ccco1	4.01%
O=C(Nc1cccc(C(F)(F)F)c1)OCc1ccncc1	5.42%
Cc1ncsc1CCOC(=O)C12CC3CC(CC(C3)C1)C2	-1.97%
O=C(O)c1nccnc1C(=O)Nc1cc(Cl)ccc1Cl	0.989%
CC1=C(C(=O)Nc2ccc(F)cc2)C(c2ccc(C#N)cc2)n2nc(-c3cccs3)nc2N1 (stereo not drawn)	6.57%
COc1cc(OC)c(NC(=O)COc2ccccc2OC)cc1Cl	-1.43%
CCN(C1=C(Cl)C(=O)N(c2ccccc2)C1=O)c1ccccc1	-1.37%
CCCNC(=O)c1c(Cl)nc(Cl)c(Cl)c1Cl	3.81%
O=C(CC1CCOCC1)Nc1ccc(Cl)c(Cl)c1	-3.32%
CC1CCCC(C)N1CC(O)COc1ccc(OCC(O)CN2C(C)CCCC2C)cc1 (stereo not drawn)	4.54%
COc1ccc(-c2csc(Nc3ccc(C)c(C)c3)n2)cc1F	2.13%
CCOC(=O)c1c(NC(=O)Cn2nc(C(F)(F)F)cc2C)sc2c1CCC(C)C2 (stereo not drawn)	-6.57%
O=C(NCCCN1CCC(N2CCCCC2)CC1)c1cc(-c2ccccc2)c(N2CCCCC2)s1	-8.85%
COc1cccc(C2C3=C(O)CCCC3=NC(C)=C2C(=O)Nc2cc(C)ccn2)c1OC (stereo not drawn)	-1.64%
COc1ccc(C2C(C#N)=C(N)Oc3c2c(=O)oc2ccccc32)cc1Br (stereo not drawn)	-5.81%
CCc1nn(C(C)C(=O)NCc2ccccn2)c(=O)c2cc3occc3n12 (stereo not drawn)	-2%
